Assay [1] concerns the target Parathyroid hormone/parathyroid hormone-related peptide receptor (Homo sapiens) (UniProt Q03431). Nature of the assay: qHTS for PTHR1 Agonists: Optimization Screen against the NCGC LOPAC library (AID 1347079).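 Further: GloSensor cAMP luminescence in HEK-293 GP2 cells expressing human PTHR1 with IBMX.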 Summed up:
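Compounds were tested across a qHTS titration. PTHR1-expressing GP2 cells report cAMP rises via GloSensor luminescence after 1 hr compound exposure at 37C with IBMX present.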

The target of assay [2] is N-terminal Xaa-Pro-Lys N-methyltransferase 1 (Homo sapiens) (UniProt Q9BV86). Put plainly: qHTS Assay for Inhibitors of N-terminal methyltransferase 1 (NTMT1): LOPAC validation of the NTMT1 SAHH-coupled ThioGlo3 Assay (AID 1347143).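 Further: SAH from peptide methylation measured as thiol fluorescence via SAHH coupling and ThioGlo3; nearly all actives have a fitted effect of over 70% in size.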 The procedure, abridged:
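Recombinant human NTMT1 (125nM) was pre-incubated 1 min at room temperature with compounds over a concentration range, then a mix of 100uM SAM, 10uM SAHH and 15uM ThioGlo3 (concentrations in added reagent) was added. ThioGlo3 fluorescence (ex 340/em 450nm) after 30 min was normalized to the initial reading.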
In general terms: In qHTS, concentration-response curves come from the screen itself.

Assay [3] concerns the target Rap guanine nucleotide exchange factor 3 (Homo sapiens) (UniProt O95398). Nature of the assay: Confirmatory qHTS for agonist of cAMP-regulated guanine nucleotide exchange factor 3 (EPAC1) (AID 1645881). Further: nearly all actives have a fitted effect of over 75% in size.
UniProt O95398, sequence (O95398 whole entry, looked up): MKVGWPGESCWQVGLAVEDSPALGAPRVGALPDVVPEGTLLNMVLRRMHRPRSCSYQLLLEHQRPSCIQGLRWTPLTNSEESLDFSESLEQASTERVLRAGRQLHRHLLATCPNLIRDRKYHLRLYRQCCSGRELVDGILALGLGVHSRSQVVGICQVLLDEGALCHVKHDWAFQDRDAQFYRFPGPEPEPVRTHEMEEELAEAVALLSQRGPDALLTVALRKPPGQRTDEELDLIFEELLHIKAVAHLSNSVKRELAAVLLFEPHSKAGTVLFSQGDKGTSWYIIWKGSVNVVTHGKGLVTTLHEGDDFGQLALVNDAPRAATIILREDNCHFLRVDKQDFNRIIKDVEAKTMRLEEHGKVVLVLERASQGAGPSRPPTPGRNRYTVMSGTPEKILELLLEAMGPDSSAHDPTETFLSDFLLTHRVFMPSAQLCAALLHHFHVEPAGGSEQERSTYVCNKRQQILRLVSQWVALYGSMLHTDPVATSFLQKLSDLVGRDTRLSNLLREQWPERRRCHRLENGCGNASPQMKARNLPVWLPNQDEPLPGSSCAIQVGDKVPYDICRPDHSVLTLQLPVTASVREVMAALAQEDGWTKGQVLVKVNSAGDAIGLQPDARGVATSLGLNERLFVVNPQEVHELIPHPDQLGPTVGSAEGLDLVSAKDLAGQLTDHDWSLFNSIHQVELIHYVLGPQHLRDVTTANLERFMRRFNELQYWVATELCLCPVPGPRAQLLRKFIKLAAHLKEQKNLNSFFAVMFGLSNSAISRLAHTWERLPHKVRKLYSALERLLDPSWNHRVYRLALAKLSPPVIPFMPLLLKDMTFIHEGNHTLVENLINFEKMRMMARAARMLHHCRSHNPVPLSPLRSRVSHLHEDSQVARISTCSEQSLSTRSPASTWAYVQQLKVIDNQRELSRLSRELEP
For assay [4], the target named is Rap guanine nucleotide exchange factor 4 (Homo sapiens) (UniProt Q8WZA2). Nature of the assay: Confirmatory qHTS for agonist of cAMP-regulated guanine nucleotide exchange factor 4 (EPAC2) (AID 1645884).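 Further: nucleotide exchange releases bodipy-GDP from Rap1 and this lowers its fluorescence; nearly all actives have a fitted effect of over 65% in size.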
UniProt Q8WZA2, sequence (Q8WZA2 whole entry, looked up): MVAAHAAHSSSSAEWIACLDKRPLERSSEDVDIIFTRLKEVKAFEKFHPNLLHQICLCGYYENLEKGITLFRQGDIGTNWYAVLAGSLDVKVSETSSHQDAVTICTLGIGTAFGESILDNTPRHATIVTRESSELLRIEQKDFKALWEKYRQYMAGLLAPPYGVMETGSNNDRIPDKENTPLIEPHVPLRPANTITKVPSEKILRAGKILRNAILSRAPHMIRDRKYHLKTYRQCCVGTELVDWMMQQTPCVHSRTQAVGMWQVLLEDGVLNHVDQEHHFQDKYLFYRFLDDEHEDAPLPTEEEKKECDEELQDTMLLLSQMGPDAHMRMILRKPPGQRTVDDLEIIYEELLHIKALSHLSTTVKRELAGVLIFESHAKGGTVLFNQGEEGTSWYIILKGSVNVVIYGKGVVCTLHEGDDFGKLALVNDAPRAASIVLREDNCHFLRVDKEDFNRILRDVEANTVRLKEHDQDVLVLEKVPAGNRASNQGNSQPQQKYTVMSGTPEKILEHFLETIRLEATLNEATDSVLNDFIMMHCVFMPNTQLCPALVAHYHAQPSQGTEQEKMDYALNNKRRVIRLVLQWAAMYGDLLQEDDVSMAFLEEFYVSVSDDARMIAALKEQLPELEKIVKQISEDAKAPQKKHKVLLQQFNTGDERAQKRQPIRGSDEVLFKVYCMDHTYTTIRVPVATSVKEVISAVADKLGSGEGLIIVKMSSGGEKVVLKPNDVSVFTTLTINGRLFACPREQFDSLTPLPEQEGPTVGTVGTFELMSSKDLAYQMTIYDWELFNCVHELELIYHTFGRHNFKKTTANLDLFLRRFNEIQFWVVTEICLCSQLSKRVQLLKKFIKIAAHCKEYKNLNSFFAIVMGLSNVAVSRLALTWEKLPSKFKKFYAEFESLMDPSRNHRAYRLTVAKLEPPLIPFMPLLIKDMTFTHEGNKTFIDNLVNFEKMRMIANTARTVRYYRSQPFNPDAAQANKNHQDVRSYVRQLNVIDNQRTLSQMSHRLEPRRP

The structures appear in SMILES notation. Records with an inconclusive call do not appear. The call rests on the fitted dose curve; in most records, active means well fitted curve in the direction sought with a large enough effect; inconclusive means small, poorly fitted or top-dose-only effect, or another doubt; inactive means no such curve, though single readings can be large; an effect the other way counts as inactive or inconclusive. The source holds several records for some structures; these can differ, active in one and inactive in another. Certain results were filed several times, with different values. This list holds those alone. An entry can have further records. Results that share an entry are repeats in other runs, samples, wells, individuals or studies. A tag in brackets gives the origin of a value. Letters hold for one entry only.
Potency means the concentration at half of the fitted maximal effect.

UniProt Q9BV86, sequence (Q9BV86 whole entry, looked up): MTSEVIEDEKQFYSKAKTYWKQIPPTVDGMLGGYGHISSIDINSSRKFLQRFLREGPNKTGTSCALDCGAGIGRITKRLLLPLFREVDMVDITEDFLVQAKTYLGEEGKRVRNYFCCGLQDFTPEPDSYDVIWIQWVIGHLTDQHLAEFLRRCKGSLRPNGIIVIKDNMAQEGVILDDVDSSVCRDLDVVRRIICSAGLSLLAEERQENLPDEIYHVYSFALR
UniProt Q03431, sequence (Q03431 whole entry, looked up): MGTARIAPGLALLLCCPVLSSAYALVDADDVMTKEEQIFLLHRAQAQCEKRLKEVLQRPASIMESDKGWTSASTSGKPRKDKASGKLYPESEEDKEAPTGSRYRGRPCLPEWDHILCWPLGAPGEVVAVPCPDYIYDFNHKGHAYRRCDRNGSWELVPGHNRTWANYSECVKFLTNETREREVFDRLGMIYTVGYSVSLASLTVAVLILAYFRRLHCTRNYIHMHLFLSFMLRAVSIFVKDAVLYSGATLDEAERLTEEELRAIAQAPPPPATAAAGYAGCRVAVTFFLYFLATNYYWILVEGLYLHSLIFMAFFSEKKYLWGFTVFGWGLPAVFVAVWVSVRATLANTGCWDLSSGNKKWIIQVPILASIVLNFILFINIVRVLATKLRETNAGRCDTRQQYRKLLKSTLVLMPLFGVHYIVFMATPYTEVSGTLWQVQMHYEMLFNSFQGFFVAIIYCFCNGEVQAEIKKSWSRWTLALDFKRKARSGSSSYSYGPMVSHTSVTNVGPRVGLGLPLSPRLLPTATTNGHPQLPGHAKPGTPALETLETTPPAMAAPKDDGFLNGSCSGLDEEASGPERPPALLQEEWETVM

Regarding `CC(C)NC[C@H](O)c1ccc(O)c(O)c1`, the Potency entry in assay [1] is “active: 67 nM [sample A] and inactive [sample B]”.
On to `CC(C)(C)[C@]1(O)CCN2C[C@H]3c4ccccc4CCc4cccc(c43)[C@@H]2C1`, for which the Potency result in assay [2] is “active: 50.1 µM [sample A] and inactive [sample B]”.
Regarding `Cc1cc2nc3c(=O)[nH]c(=O)nc-3n(C[C@H](O)[C@H](O)[C@H](O)CO)c2cc1C`, the Potency entry in assay [3] is “active: 63 µM [sample A] and active: 25.1 µM [sample B] and inactive [sample C]”; in assay [4] it was “inactive [sample A] and inactive [sample B] and active: 37 µM [sample C]”.

For the origin of these results see PubChem BioAssay (NCATS).
